# Reference: the supplement of paper PMC12217912
# The list shows a part of the results. Sequences were assembled here from the parent chain. Inactive controls read about 0.05.
# B1: TEV protease; numbered along this chain (parent)
# chain: MGESLFKGPRDYNPISSSICHLTNESDGHTTSLYGIGFGPFIITNKHLFRRNNGTLVVQSLHGVFKVKDTTTLQQHLVDGRDMIIIRMPKDFPPFPQKLKFREPQREERICLVTTNFQTKSMSSMVSDTSCTFPSGDGIFWKHWIQTKDGQCGSPLVSTRDGFIVGIHSASNFTNTNNYFTSVPKNFMELLTNQEAQQWVSGWRLNADSVLWGGHKVFMVKPEEPFQPVKEATQL
# Variants of: B1
# Test: raw area under fraction-flipped curve 0-4 h after induction (AUC4h, not background-subtracted), DNA-recorder readout of cleavage of the substrate (dimensionless); higher = more cleavage of the substrate by the protease variant
# Conditions: temperature: 34 °C; time window: 0-4 h after rhamnose induction
# Description: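 In vivo DNA recorder in E. coli TOP10(DE3) ΔrhaA at 34 °C. Each TEVp single-site mutant (parent TEVp 0) is paired with a single-site variant of the 7-mer TEVs (canonical ENLYFQ|S). The substrate sits between flexible linkers in a Bxb1-sfGFP-TEVs-SsrA fusion, so cleavage stabilises Bxb1 and speeds flipping of a recombination array, read by NGS. The value is the raw area under the fraction-flipped curve over 0-4 h after rhamnose induction (AUC4h), with ≥20 reads per time point. It is not background-subtracted; inactive controls average about 0.047.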
# 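Also: Bxb1 expression induced with 0.2% (w/v) L-rhamnose at OD600 near 0.5, cultures sampled hourly, flipped fraction per protease–substrate barcode pair counted by paired-end Illumina sequencing.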
Variant,area with substrate EALYFQS,area with substrate ECLYFQS,area with substrate EDLYFQS,area with substrate EELYFQS,area with substrate EFLYFQS,area with substrate EGLYFQS,area with substrate EHLYFQS,area with substrate EILYFQS,area with substrate EKLYFQS,area with substrate ELLYFQS,area with substrate EMLYFQS,area with substrate EQLYFQS,area with substrate ERLYFQS,area with substrate ESLYFQS,area with substrate ETLYFQS,area with substrate EVLYFQS,area with substrate EYLYFQS,area with substrate EPLYFQS,area with substrate EWLYFQS
MGESLFKGPRDYNPISSSICHLTNESDGHTTSLYGIGFGPFIITNKHLFRRNNGTLYVQSLHGVFKVKDTTTLQQHLVDGRDMIIIRMPKDFPPFPQKLKFREPQREERICLVTTNFQTKSMSSMVSDTSCTFPSGDGIFWKHWIQTKDGQCGSPLVSTRDGFIVGIHSASNFTNTNNYFTSVPKNFMELLTNQEAQQWVSGWRLNADSVLWGGHKVFMVKPEEPFQPVKEATQL [V57Y],0.127,0.0953,0.0612,0.116,0.09,0.0874,0.108,0.0839,0.111,0.0882,0.105,0.11,0.077,0.105,0.102,0.0907,0.114,,
MGESLFKGPRDYNPISSSICHLTNESDGHTTSLYGIGFGPFIITNKHLFRRNNGTLMVQSLHGVFKVKDTTTLQQHLVDGRDMIIIRMPKDFPPFPQKLKFREPQREERICLVTTNFQTKSMSSMVSDTSCTFPSGDGIFWKHWIQTKDGQCGSPLVSTRDGFIVGIHSASNFTNTNNYFTSVPKNFMELLTNQEAQQWVSGWRLNADSVLWGGHKVFMVKPEEPFQPVKEATQL [V57M],0.12,0.0951,0.138,,,0.086,0.0952,0.106,0.0915,0.0887,0.126,0.121,0.102,0.112,,0.0821,0.117,0.118,0.105
MGESLFKGPRDYNPISSSICHLTNESDGHTTSLYGIGFGPFIITNKHLFRRNNGTLTVQSLHGVFKVKDTTTLQQHLVDGRDMIIIRMPKDFPPFPQKLKFREPQREERICLVTTNFQTKSMSSMVSDTSCTFPSGDGIFWKHWIQTKDGQCGSPLVSTRDGFIVGIHSASNFTNTNNYFTSVPKNFMELLTNQEAQQWVSGWRLNADSVLWGGHKVFMVKPEEPFQPVKEATQL [V57T],0.104,0.116,,0.141,0.0961,,0.0997,0.108,0.0766,0.111,0.111,0.126,0.112,0.102,,0.0952,,,0.118
MGESLFKGPRDYNPISSSICHLTNESDGHTTSLYGIGFGPFIITNKHLFRRNNGTLVVQSLHGNFKVKDTTTLQQHLVDGRDMIIIRMPKDFPPFPQKLKFREPQREERICLVTTNFQTKSMSSMVSDTSCTFPSGDGIFWKHWIQTKDGQCGSPLVSTRDGFIVGIHSASNFTNTNNYFTSVPKNFMELLTNQEAQQWVSGWRLNADSVLWGGHKVFMVKPEEPFQPVKEATQL [V64N],0.148,0.0972,0.122,0.114,,0.0784,0.131,0.0863,,0.0957,0.0973,0.123,0.0725,0.101,,0.115,0.0794,,0.0919
MGESLFKGPRDYNPISSSICHLTNESDGHTTSLYGIGFGPFIITNKHLFRRNNGTLVVQVLHGVFKVKDTTTLQQHLVDGRDMIIIRMPKDFPPFPQKLKFREPQREERICLVTTNFQTKSMSSMVSDTSCTFPSGDGIFWKHWIQTKDGQCGSPLVSTRDGFIVGIHSASNFTNTNNYFTSVPKNFMELLTNQEAQQWVSGWRLNADSVLWGGHKVFMVKPEEPFQPVKEATQL [S60V],0.115,0.101,0.117,0.0953,0.0925,0.0784,0.153,0.0944,0.0894,0.0888,0.113,0.103,0.0884,0.095,0.0891,0.0829,0.0835,0.101,0.0988
MGESLFKGPRDYNPISSSICHLTNESDGHTTSLYGIGFGPFIITNKHLFRRNNGTLVVQFLHGVFKVKDTTTLQQHLVDGRDMIIIRMPKDFPPFPQKLKFREPQREERICLVTTNFQTKSMSSMVSDTSCTFPSGDGIFWKHWIQTKDGQCGSPLVSTRDGFIVGIHSASNFTNTNNYFTSVPKNFMELLTNQEAQQWVSGWRLNADSVLWGGHKVFMVKPEEPFQPVKEATQL [S60F],0.155,0.0776,,0.107,,0.0921,0.105,0.103,0.0935,0.0884,,0.119,0.097,0.111,,,,0.118,0.0891
MGESLFKGPRDYNPISSSICHLTNESDGHTTSLYGIGFGPFIITNKHLFRRNNGTLVVQSLHMVFKVKDTTTLQQHLVDGRDMIIIRMPKDFPPFPQKLKFREPQREERICLVTTNFQTKSMSSMVSDTSCTFPSGDGIFWKHWIQTKDGQCGSPLVSTRDGFIVGIHSASNFTNTNNYFTSVPKNFMELLTNQEAQQWVSGWRLNADSVLWGGHKVFMVKPEEPFQPVKEATQL [G63M],0.098,0.114,0.106,,0.0759,0.0751,,0.0801,,,0.104,,0.106,0.0786,,,,0.142,0.0817
MGESLFKGPRDYNPISSSICHLTNESDGHTTSLYGIGFGPFIITNKHLFRRNNGTLVVQSLHFVFKVKDTTTLQQHLVDGRDMIIIRMPKDFPPFPQKLKFREPQREERICLVTTNFQTKSMSSMVSDTSCTFPSGDGIFWKHWIQTKDGQCGSPLVSTRDGFIVGIHSASNFTNTNNYFTSVPKNFMELLTNQEAQQWVSGWRLNADSVLWGGHKVFMVKPEEPFQPVKEATQL [G63F],0.114,0.0825,0.11,0.114,,,0.0895,0.0695,,0.069,0.123,,0.0874,0.102,0.0985,0.0734,,,0.0752
MGESLFKGPRDYNPISSSICHLTNESDGHTTSLYGIGFGPFIITNKHLFRRNNGTLVVQSLHIVFKVKDTTTLQQHLVDGRDMIIIRMPKDFPPFPQKLKFREPQREERICLVTTNFQTKSMSSMVSDTSCTFPSGDGIFWKHWIQTKDGQCGSPLVSTRDGFIVGIHSASNFTNTNNYFTSVPKNFMELLTNQEAQQWVSGWRLNADSVLWGGHKVFMVKPEEPFQPVKEATQL [G63I],0.116,0.0866,0.0946,0.0802,,,0.0891,0.0789,0.0708,0.0857,0.118,0.116,0.087,0.0863,,0.0935,0.084,,
MGESLFKGPRDYNPISSSICHLTNESDGHTTSLYGIGFGPFIITNKHLFRRNNGTLVVQSLHNVFKVKDTTTLQQHLVDGRDMIIIRMPKDFPPFPQKLKFREPQREERICLVTTNFQTKSMSSMVSDTSCTFPSGDGIFWKHWIQTKDGQCGSPLVSTRDGFIVGIHSASNFTNTNNYFTSVPKNFMELLTNQEAQQWVSGWRLNADSVLWGGHKVFMVKPEEPFQPVKEATQL [G63N],0.114,0.0671,0.119,0.112,0.0937,,,0.0928,,0.0796,0.0776,0.105,0.0577,0.0919,0.0684,0.0525,0.102,0.1,
MGESLFKGPRDYNPISSSICHLTNESDGHTTSLYGIGFGPFIITNKHLFRRNNGTLVVQSLHGVEKVKDTTTLQQHLVDGRDMIIIRMPKDFPPFPQKLKFREPQREERICLVTTNFQTKSMSSMVSDTSCTFPSGDGIFWKHWIQTKDGQCGSPLVSTRDGFIVGIHSASNFTNTNNYFTSVPKNFMELLTNQEAQQWVSGWRLNADSVLWGGHKVFMVKPEEPFQPVKEATQL [F65E],0.108,0.0799,0.116,0.104,0.0795,,0.075,0.0768,0.0895,0.0776,,,0.101,0.0922,,0.0823,0.111,0.107,0.104
MGESLFKGPRDYNPISSSICHLTNESDGHTTSLYGIGFGPFIITNKHLFRRNNGTLVVQSLHGVRKVKDTTTLQQHLVDGRDMIIIRMPKDFPPFPQKLKFREPQREERICLVTTNFQTKSMSSMVSDTSCTFPSGDGIFWKHWIQTKDGQCGSPLVSTRDGFIVGIHSASNFTNTNNYFTSVPKNFMELLTNQEAQQWVSGWRLNADSVLWGGHKVFMVKPEEPFQPVKEATQL [F65R],0.096,0.085,0.124,0.102,0.1,0.108,0.0668,0.0891,0.119,,0.0899,0.0866,0.106,0.143,0.0889,0.0974,,0.119,
MGESLFKGPRDYNPISSSICHLTNESDGHTTSLYGIGFGPFIITNKHLFRRNNGTLVVQSLHGVFKRKDTTTLQQHLVDGRDMIIIRMPKDFPPFPQKLKFREPQREERICLVTTNFQTKSMSSMVSDTSCTFPSGDGIFWKHWIQTKDGQCGSPLVSTRDGFIVGIHSASNFTNTNNYFTSVPKNFMELLTNQEAQQWVSGWRLNADSVLWGGHKVFMVKPEEPFQPVKEATQL [V67R],0.0608,0.0526,0.0688,,,0.0764,0.0701,0.003,0.0773,0.0615,0.0548,,0.0683,,,0.0727,,,0.0643
MGESLFKGPRDYNPISSSICHLTNESDGHTTSLYGIGFGPFIITNKHLFRRNNGTLVVQSAHGVFKVKDTTTLQQHLVDGRDMIIIRMPKDFPPFPQKLKFREPQREERICLVTTNFQTKSMSSMVSDTSCTFPSGDGIFWKHWIQTKDGQCGSPLVSTRDGFIVGIHSASNFTNTNNYFTSVPKNFMELLTNQEAQQWVSGWRLNADSVLWGGHKVFMVKPEEPFQPVKEATQL [L61A],0.11,0.102,0.0981,0.114,,0.0703,,0.105,,0.0851,,0.107,0.0767,0.101,,,0.0923,,0.0915
MGESLFKGPRDYNPISSSICHLTNESDGHTTSLYGIGFGPFIITNKHLFRRNNGTLVVQSLHGVFKVKHTTTLQQHLVDGRDMIIIRMPKDFPPFPQKLKFREPQREERICLVTTNFQTKSMSSMVSDTSCTFPSGDGIFWKHWIQTKDGQCGSPLVSTRDGFIVGIHSASNFTNTNNYFTSVPKNFMELLTNQEAQQWVSGWRLNADSVLWGGHKVFMVKPEEPFQPVKEATQL [D69H],0.12,0.0997,0.121,0.0746,0.0614,0.0967,0.0816,0.0699,0.113,0.0811,0.105,0.0962,0.0989,0.107,,0.091,,0.101,
MGESLFKGPRDYNPISSSICHLTNESDGHTTSLYGIGFGPFIITNKHLFRRNNGTLVVQSLHGVFFVKDTTTLQQHLVDGRDMIIIRMPKDFPPFPQKLKFREPQREERICLVTTNFQTKSMSSMVSDTSCTFPSGDGIFWKHWIQTKDGQCGSPLVSTRDGFIVGIHSASNFTNTNNYFTSVPKNFMELLTNQEAQQWVSGWRLNADSVLWGGHKVFMVKPEEPFQPVKEATQL [K66F],0.114,0.1,0.147,,0.111,,,0.0907,,0.102,0.0928,,0.0934,0.104,0.112,0.102,,,0.0961
MGESLFKGPRDYNPISSSICHLTNESDGHTTSLYGIGFGPFIITNKHLFRRNNGTLVVQSLHGVFRVKDTTTLQQHLVDGRDMIIIRMPKDFPPFPQKLKFREPQREERICLVTTNFQTKSMSSMVSDTSCTFPSGDGIFWKHWIQTKDGQCGSPLVSTRDGFIVGIHSASNFTNTNNYFTSVPKNFMELLTNQEAQQWVSGWRLNADSVLWGGHKVFMVKPEEPFQPVKEATQL [K66R],0.135,0.0819,0.13,0.138,0.102,,,,,,,0.148,0.0956,0.135,0.105,0.121,0.113,,0.0994
MGESLFKGPRDYNPISSSICHLTNESDGHTTSLYGIGFGPFIITNKHLFRRNNGTLVVVSLHGVFKVKDTTTLQQHLVDGRDMIIIRMPKDFPPFPQKLKFREPQREERICLVTTNFQTKSMSSMVSDTSCTFPSGDGIFWKHWIQTKDGQCGSPLVSTRDGFIVGIHSASNFTNTNNYFTSVPKNFMELLTNQEAQQWVSGWRLNADSVLWGGHKVFMVKPEEPFQPVKEATQL [Q59V],0.104,0.125,0.105,0.111,,0.104,,0.115,0.106,,0.12,,,0.115,0.114,,,,
